In this experiment the target is T1, 人血清白蛋白 (human, UniProt P02768).
T1 construct: Injected as analyte over the immobilised fusion protein; also called human serum albumin; HSA
Description: SPR, GE Biacore X100, fusion protein amine-coupled to a CM-5 chip, human serum albumin injected at at least three concentrations. On the technique in general: SPR reads the build-up and loss of mass on a sensor chip optically.

T1 sequence (P02768 25-609 limits assumed): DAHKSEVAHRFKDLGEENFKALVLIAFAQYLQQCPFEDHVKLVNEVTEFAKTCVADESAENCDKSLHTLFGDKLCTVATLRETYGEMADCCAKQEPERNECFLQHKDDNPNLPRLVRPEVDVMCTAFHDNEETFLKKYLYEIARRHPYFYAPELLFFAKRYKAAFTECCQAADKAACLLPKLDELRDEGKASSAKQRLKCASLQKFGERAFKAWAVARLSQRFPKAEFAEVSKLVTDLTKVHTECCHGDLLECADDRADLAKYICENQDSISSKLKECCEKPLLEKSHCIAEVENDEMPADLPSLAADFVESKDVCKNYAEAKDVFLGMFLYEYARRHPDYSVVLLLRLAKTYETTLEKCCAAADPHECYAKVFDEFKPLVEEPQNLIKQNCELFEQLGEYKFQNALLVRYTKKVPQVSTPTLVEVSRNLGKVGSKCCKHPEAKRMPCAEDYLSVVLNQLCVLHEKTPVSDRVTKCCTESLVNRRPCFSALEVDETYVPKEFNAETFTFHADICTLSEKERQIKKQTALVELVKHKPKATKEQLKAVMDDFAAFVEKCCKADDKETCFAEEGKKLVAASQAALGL

B1: 抗人血清白蛋白纳米抗体与IL-2融合蛋白 (other)
chain: MADVQLVESGGGLVQPGQSLRLSCAATGRSFTTNAMAWFRQFPGKEREFVAAISWGGLGYVADSMRGRFTISRDTKDTMILRLSSLKREDTAIYYCAARKTSTTATEATMYAYWGHGTQVTVSEPKTPKEFGGGGSGGGGS[about 150 residues left out]
notes: Expressed from pMAL-c5x in E. coli BL21(DE3) and purified on Ni-NTA; TEV cleavage is described only for a 10 ug sample run on a gel; also called 抗人血清白蛋白纳米抗体与人IL-2融合蛋白; 重组融合蛋白
Consider B1, for which the affinity, expressed as Kd, was 0.162 nM.

Values taken from patent publication CN110950967A (SHANDONG MINKANG BIOLOGICAL TECH CO LTD; HANGZHOU ZHONGLIAN …, dated 2020).
